# Data from the RNAGym collection of RNA variant scans (doi:10.7554/elife.90254).
# Read counts are not given, so values of variants with three or more changes are uncertain.
# B1: LINE1-full (parent)
# chain: UACGUAGGUGGUUUUCCCCUGAUAGUGCUAAGGGGGCCUGGAAGUUUGGACUGGGCAGAGCUCAACACAGCGUGGCAAAGUGGCUGUGGCUAGACUGCCUCUCUGGAUUCCUCGUCACUCAGCAGGGCAUCUCUGAGAGAAAUGCC
# Variants of: B1
# Experiment: self-cleavage, relative activity (ratio to wild type); higher = more cleavage; in vitro, sequencing; the parent is a self-cleaving ribozyme
row,Variant,self-cleavage
1,UACGUAGGUGGUUUUCCCCUGAUAGUGCUAAGGGGGCCUGGAAGUUUGGACUGGGCAGAACUCAGCACAGCGUGGCUAAGUGGCUGUGGCUAGACUGCCUCUCUGGAUUCCUCGUCACUCAGCAGGGCAUCUCUGAGAGAAAUGCC [G60A A65G A77U],0.03
2,UACGUAGGUGGUUUUCCCCUGAUAGUGCUAAGGGGGCCUGGAAGUUUGGACUGGGCAGAACUCAACGCAGCGUGGCAAAGUGGCUGUGGCUAGACUGCCUCUCUGGAUCCCUCGCCACUCAGCAGGGCAUCUCUGAGAGAAAUGCC [G60A A67G U109C U115C],0
3,UACGUAGGUGGUUUUCCCCUGAUAGUGCUAAGGGGGCCUGGAAGUUUGGACUGGGCAGAACUCAACACAGCGUGGCAAGGUGGCUGUGGCUAGACUGCCUCUCUGGAUUCCUCGUCACUCAGCAGGGCAUCUCUGAGAGAUAUGCC [G60A A79G A141U],0
4,UACGUAGGUGGUUUUCCCCUGAUAGUGCUAAGGGGGCCUGGAAGUUUGGACUGGGCAGAACUCAACACAGCGUGGCAAGGUGGCUGUGGCUAGACUGCCUCUCUGGAUUCCUCGUCACUCAGCAGGUCAUCUCUGAGAGAAAUGCC [G60A A79G G127U],0.03
5,UACGUAGGUGGUUUUCCCCUGAUAGUGCUAAGGGGGCCUGGAAGUUUGGACUGGGCAGAACUCAACACAGCGUGGCAAAGUGGCUGUGGCUAGACUGCCUCUCUGGAUUCCUCGUCGCUCAGCAGGGCAUCCCUGAGAGAAAUGCC [G60A A117G U132C],0.04
6,UACGUAGGUGGUUUUCCCCUGAUAGUGCUAAGGGGGCCUGGAAGUUUGGACUGGGCAGAACUCAACAUAGCGAGGCAAAGUGGCCGUGGCUAGACUGCCUCUCUGGAUUCCUCGUCACUCAGCAGGGCACCUCUGAGAGAAAUGCC [G60A C68U U73A U85C U130C],0.01
7,UACGUAGGUGGUUUUCCCCUGAUAGUGCUAAGGGGGCCUGGAAGUUUGGACUGGGCAGAACCCAACACAGCGUGGCAUAGUGGCUGUGGCUAGACCGCCUCCCUGGAUUCCUCGUCACUCAGCAGGGCAUCUCUGAGAGAAAUGCC [G60A U62C A78U U96C U102C],0.14
8,UACGUAGGUGGUUUUCCCCUGAUAGUGCUAAGGGGGCCUGGAAGUUUGGACUGGGCAGAACCCAACACAGCGUGGCAAAGCGGCUGUGGCUAGACUGCCUCUCUGGAUUCCUCGUCACUCAGCAGGGCAUCUCUGAGAGAAAUGCC [G60A U62C U81C],0
9,UACGUAGGUGGUUUUCCCCUGAUAGUGCUAAGGGGGCCUGGAAGUUUGGACUGGGCAGAACUCAACACAGCGUGGCAAAGUGGCUGUGGCUAGACUGCCUCUCAGGAUUCCUCGACACUCAGCAGGGCAUCUCUGAGAGAAAUGCC [G60A U104A U115A],0.02
10,UACGUAGGUGGUUUUCCCCUGAUAGUGCUAAGGGGGCCUGGAAGUUUGGACUGGGCAGACCUCAACACGGCGUGGCAAAGUGGCUGUGGCUAGACCGCCACUCUGGAUUCCUCGUCACUCAGCAGGGCAUCUCUGAGAGAAAUGCC [G60C A69G U96C U100A],0
11,UACGUAGGUGGUUUUCCCCUGAUAGUGCUAAGGGGGCCUGGAAGUUUGGACUGGGCAGACCUCAACACAGCAUGGCAAAGUGGCUGUGGCUAGACUGCCUCUCUGGAUUCCUCGUCACUCAGCAGGGCGUCUCUGAGAGAAAUGCC [G60C G72A A129G],0.02
12,UACGUAGGUGGUUUUCCCCUGAUAGUGCUAAGGGGGCCUGGAAGUUUGGACUGGGCAGACCUCAACACAGCGUGGCAAAGUGGCUGCGGCUAGACUGCCUCUCUGGAUUCCUCGUCACUCAGCAGGGCGUCUCUGAGGGAAAUGCC [G60C U87C A129G A138G],0.08
13,UACGUAGGUGGUUUUCCCCUGAUAGUGCUAAGGGGGCCUGGAAGUUUGGACUGGGCAGAUCUCAACACAGCGUAGCAAAGUGGCUGUGGCUAGACUGCCUCUCUGGAUUCCUCGUCUCUCAGCAGGGCAUCUCUGAGAGAAAUGCC [G60U G74A A117U],0.01
14,UACGUAGGUGGUUUUCCCCUGAUAGUGCUAAGGGGGCCUGGAAGUUUGGACUGGGCAGAUCUCAACACAGCGUGGCAAAGUGGCUGUGGCUAGACUGCCUCUCUGGACUCCUCGUCACUCAGCAGGGCAUCUCUGAGAGAAGUGCC [G60U U108C A142G],0.05
15,UACGUAGGUGGUUUUCCCCUGAUAGUGCUAAGGGGGCCUGGAAGUUUGGACUGGGCAGAGAUCGGCACAGCGUGGCAAAGUGGCUGUGGCUAGACUGCCUCUCUGGAUUCCUCGUCACUCAGCAGGGCAUCUCUGAGAGAAAUGUC [C61A A64G A65G C145U],0.08
16,UACGUAGGUGGUUUUCCCCUGAUAGUGCUAAGGGGGCCUGGAAGUUUGGACUGGGCAGAGGUCUACACAGCGUGGCAAAGUGGCUGCGGCUAGACUGCCUCUCUGGAUUCCUCGUCACUCAGCAGGGCAUCUCUGAGAGAAAUGCU [C61G A64U U87C C146U],0.07
17,UACGUAGGUGGUUUUCCCCUGAUAGUGCUAAGGGGGCCUGGAAGUUUGGACUGGGCAGAGUUCAACACAGCGUGGCUAAGUGGCUGUGGCUAGACUGCCCCUCUGGAUUCCUCGUCACUCAGCAGGGCAUCUCUGAGAGAAAUGCC [C61U A77U U100C],0.02
18,UACGUAGGUGGUUUUCCCCUGAUAGUGCUAAGGGGGCCUGGAAGUUUGGACUGGGCAGAGUUCAACACAGCGUGGCAAAGUGGCUGUGGCUAGACUGCCUCUCUGGUUUCCUCGUCACUCAGCAGGGCAUCCCUGAGAGAAGUGCC [C61U A107U U132C A142G],0.02
19,UACGUAGGUGGUUUUCCCCUGAUAGUGCUAAGGGGGCCUGGAAGUUUGGACUGGGCAGAGUUCAACAUAGCGUGGCAAAGUGGCUGUGGCUAGACUGCCUCCCUGGAUUCCUCGUCACUCAGCAGGGCAUCUCUGAGAGAAAUGCC [C61U C68U U102C],0
20,UACGUAGGUGGUUUUCCCCUGAUAGUGCUAAGGGGGCCUGGAAGUUUGGACUGGGCAGAGUUCAACACAGCGAGGCAAAGUGGCUGUGGCUAGACCGCCUCUCUGGAUUCCUCGUCACUCAGCAGGGCAUCUCUGAGAGAAAUGCC [C61U U73A U96C],0.01

row,Variant,self-cleavage
1,UACGUAGGUGGUUUUCCCCUGAUAGUGCUAAGGGGGCCUGGAAGUUUGGACUGGGCAGAGUUCAACACAGCGUGGCAAAGUGGCUGAGGCUAGACUGCCUCUCUGGAUCCCUCGUCACUCAGCAGGGCAUCUCUGAGAGAAAUGCC [C61U U87A U109C],0.04
2,UACGUAGGUGGUUUUCCCCUGAUAGUGCUAAGGGGGCCUGGAAGUUUGGACUGGGCAGAGUUCAACACAGCGUGGCAAAGUGGCUGUGGCCAGACUGCCUCUCUGGAUUCCUCGUCACUCAGCAGGACAUCUCUGAGAGAAAUGCC [C61U U91C G127A],0.02
3,UACGUAGGUGGUUUUCCCCUGAUAGUGCUAAGGGGGCCUGGAAGUUUGGACUGGGCAGAGCACGACACAGCGUGGCAAAGUGGCCGUGGCUAGACUGCCUCUCUGGAUUCCUCGUCACUCAGCAGGGCAUCUCUGAGAGAAAUGCC [U62A A64G U85C],0
4,UACGUAGGUGGUUUUCCCCUGAUAGUGCUAAGGGGGCCUGGAAGUUUGGACUGGGCAGAGCACUACACAGCGUGGCAAUGUGGCUGUGGCUAGACAGCCUCUCUGGAUUCCUCGUCACUCAGCGUGGCAUCUCUGAGAGAAAUGCC [U62A A64U A79U U96A A124G G125U],0.02
5,UACGUAGGUGGUUUUCCCCUGAUAGUGCUAAGGGGGCCUGGAAGUUUGGACUGGGCAGAGCACAGCACAGCGUGGCGAAGUGGCUGUGGCUAGACUGCCCCUCUGGAUUCCUCGUCACUCAGCAGGGCAUCUCAGAGAGAAAUGCC [U62A A65G A77G U100C U134A],0
6,UACGUAGGUGGUUUUCCCCUGAUAGUGCUAAGGGGGCCUGGAAGUUUGGACUGGGCAGAGCACAGCACAGCGUGGCAAAGUGGCUGUGGCUAGACUGCCUCUCUGGAUUCCUCGUCACUCAGCCGGGCAUCUCUGAGAGAAAUGCC [U62A A65G A124C],0
7,UACGUAGGUGGUUUUCCCCUGAUAGUGCUAAGGGGGCCUGGAAGUUUGGACUGGGCAGAGCACAACGCAGCGUGGCAAAGUGGCUGUGGCUAGACCGCCCCUCUGGAUUCCUCGUCACUCAGCAGGGCAUCUCUGAGAGAAAUGCC [U62A A67G U96C U100C],0
8,UACGUAGGUGGUUUUCCCCUGAUAGUGCUAAGGGGGCCUGGAAGUUUGGACUGGGCAGAGCACAACACGGCGUGGCAAAGUGGCUGUGACUAGACUGCCUCUCUGGAUUCCUCGUCACUCAGCAGGGCAUCUCUGAGAGAAAUGCC [U62A A69G G89A],0.06
9,UACGUAGGUGGUUUUCCCCUGAUAGUGCUAAGGGGGCCUGGAAGUUUGGACUGGGCAGAGCACAACACUGCGUGGCAAAGUGGCUGUGGCUAGACUGCCUCUCUGGGUUCCUCGUCGCUCAGCAGGGCAUCUCUGAGGGAAAUGCC [U62A A69U A107G A117G A138G],0
10,UACGUAGGUGGUUUUCCCCUGAUAGUGCUAAGGGGGCCUGGAAGUUUGGACUGGGCAGAGCACAACACUGCGUGGCAAAGUGGCUGUGGCUAGACUGCCUCUCUGGAUUCCUCGUCACUCAGCAGGGCAUCUCUGAGAGGAAUGCC [U62A A69U A140G],0.03
11,UACGUAGGUGGUUUUCCCCUGAUAGUGCUAAGGGGGCCUGGAAGUUUGGACUGGGCAGAGCACAACACAGCGUGGCGAAGUGGCUGUGGCUAGACUGCCUCUCUGGAUUCCUCGUCACUCAGCAGGGCAUCUCUGAGAGAAGUGCC [U62A A77G A142G],0.13
12,UACGUAGGUGGUUUUCCCCUGAUAGUGCUAAGGGGGCCUGGAAGUUUGGACUGGGCAGAGCACAACACAGCGUGGCGAAGUGGCGGUGGCUAGACUGCCUCUCUGGAUUCCUCGUCACUCAGCAGGGCAUCUCUGAGAAAAAUGCC [U62A A77G U85G G139A],0
13,UACGUAGGUGGUUUUCCCCUGAUAGUGCUAAGGGGGCCUGGAAGUUUGGACUGGGCAGAGCACAACACAGCGUGGCUAAGUGGCUGUGGCUAGGCUGCCUCUCUGGAUUCCUCGUCACUCAGCAGGGCAUCUCUGAGAGAAAUGCC [U62A A77U A94G],0
14,UACGUAGGUGGUUUUCCCCUGAUAGUGCUAAGGGGGCCUGGAAGUUUGGACUGGGCAGAGCACAACACAGCGUGGCUAAGUGGCAGUGGCUAGACUGCCUCUCUGGAUUCCUCGUCACUCAGCAGGGCAUCUCUGAGAGAAAUGCC [U62A A77U U85A],0.05
15,UACGUAGGUGGUUUUCCCCUGAUAGUGCUAAGGGGGCCUGGAAGUUUGGACUGGGCAGAGCACAACACAGCGUGGCAAGGAGGCUGUGGCUAGACUGCCUCUCUGGAUUCCUCGUCACUCAGCAGGGCACCUCUGAGAGAAAUGCC [U62A A79G U81A U130C],0
16,UACGUAGGUGGUUUUCCCCUGAUAGUGCUAAGGGGGCCUGGAAGUUUGGACUGGGCAGAGCACAACACAGCGUGGCAAGGUGGCUGUGGCUAGACUGCCUCCCUGGAUUCCUCGUCACUCAGCAGGGCAUCUCUGAGAGAAAUGCC [U62A A79G U102C],0.07
17,UACGUAGGUGGUUUUCCCCUGAUAGUGCUAAGGGGGCCUGGAAGUUUGGACUGGGCAGAGCACAACACAGCGUGGCAAGGUGGCUGUGGCUAGACUGCCUCUCUGGAUUCCUCGUCACUCAGCAGGGCACCUCUGAGAGAAAUGCC [U62A A79G U130C],0.07
18,UACGUAGGUGGUUUUCCCCUGAUAGUGCUAAGGGGGCCUGGAAGUUUGGACUGGGCAGAGCACAACACAGCGUGGCAAUGUGGCUGUGGCUAGACUGCCUCUCUGGAUUCCUCGUCACUCUGCAGGGCAUCUCUGAGAGAAAUGCC [U62A A79U A121U],0.01
19,UACGUAGGUGGUUUUCCCCUGAUAGUGCUAAGGGGGCCUGGAAGUUUGGACUGGGCAGAGCACAACACAGCGUGGCAAUGUGGCUGUGGCUAGACUGCCUCCCUGGAUUCCUCGUCACUCAGCAGGGCUUCUCUGAGAGAAAUGCC [U62A A79U U102C A129U],0.07
